± gives the standard deviation of the averaged measurements. The list shows a part of the results.
test system: PfAP2-G AP2 domain (GST-tagged); assay: gcPBM binding intensity (ln(normalized median fluorescence intensity)); higher = stronger DNA binding
Procedure, shortened: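 GST-tagged P. falciparum DNA-binding domains produced in E. coli were incubated for 1 h on an Agilent 4 × 180k array of primer-extended double-stranded 36-bp intergenic genomic probes with negative controls. Binding intensity is the highest Masliner-normalised natural-log median intensity across replicate spots of either probe orientation, with bound protein detected by Alexa488 anti-GST antibody at 488 nm.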

Row | Sequence | gcPBM binding intensity (ln)
1 | ATTATATATATAAAGTGTACAAAAAAAAAAAAAAAA [XGTACX_site3134] | 11.2 ± 1.1
2 | AATCAATATAAATAAAATTTTTAATTTTAACCCTAA [GTGCAC_negctrl_site266] | 9.675 ± 0.049
3 | TCATAAATGAAACACACACACACATCTGGATACCCC [CACACA_site3332] | 10.7 ± 0.49
4 | TAAACATATAAAAAGGGTACACATTAAACATAGTAT [XGTACX_site7096] | 11.3 ± 0.79
5 | AAATCATTCCTTTATTCACACAATATCTGTATTTAT [CACACA_site4407] | 10.05 ± 0.021
6 | TTGTATTTACACGATCAACCAAATGGTATATAAATA [GTGCAC_negctrl_site167] | 10.2 ± 0.2
7 | ATATGTAGTTTTTACCTAATAAAAAAAAAAAAAAAA [CACACA_negctrl_site672] | 9.78 ± 0.45
8 | ATGCACATTTATAAAAGTACATGTATGTAATATGTT [XGTACX_site830] | 11.2 ± 0.69
9 | ATTTAAATGAAAAAATGTACAAAAAGATTTAAACTC [XGTACX_site1489] | 11 ± 0.46
10 | AAAACAAATTAAAATCGTACAATTATAATGTTAATG [XGTACX_site180] | 10.9 ± 0.4
11 | TATAAAATAAAAATTATATATTTTAAATGGATACAA [TGCATGCA_negctrl_site284] | 9.89 ± 0.099
12 | ATAGCTAAGATAGCTTGTACATATATTTACATATAT [XGTACX_site3694] | 10.8 ± 0.52
13 | TCCATATGCAAACTGGTGCACAAGTAGCTTTTATAT | 10.4 ± 0.48
14 | TAATTCCATAAGTAAACACACAAATGCCAAAATTTT [CACACA_site3205] | 10.04 ± 0.035
15 | GTGCGTGCGTGTACTTAACACACATAATATGTATTT [CACACA_site8336] | 11.4 ± 1
16 | TTAAAGGGAATGTATACACACGTTTCTCTATGTTAT [CACACA_site4793] | 9.97 ± 0.099
17 | TTAAGCCGCAATATGGGTACATAGGAAGAAGGGGAA [XGTACX_site8397] | 11.3 ± 1
18 | ATATATAAAAATATTTGTACATATAGTTATATTTAT [XGTACX_site6114] | 10.8 ± 0.54
19 | TTTCTTTTTCTAGTTATTTTTACTTATCCCTAATTT [TGCATGCA_negctrl_site460] | 9.84 ± 0.27
20 | TTATAATTAAGATATAATCAATAATAACAAATGAAC [CACACA_negctrl_site1690] | 9.84 ± 0.014
21 | TTCTTTGCTTCTGTTTCACACATTTTTAAAATAAGC [CACACA_site4741] | 10.3 ± 0.15
22 | CAAAAAAGGTCCCGGAGTACATATATAATTTTTTTT [XGTACX_site458] | 11.6 ± 0.83

Row | Sequence | gcPBM binding intensity (ln)
23 | GAGATGACATTACACAGTACCCAGGAAATCTACGGA [XGTACX_site4931] | 10.8 ± 0.47
24 | TATATATTGTTATATACACACATGTATATAAAAAAT [CACACA_site3221] | 10 ± 0.21
25 | ATTGTCCTAAATACTACAAAGTAGATCTTTAATATT [CACACA_negctrl_site1795] | 10.8 ± 0.6
26 | AAAATTATATATTTTAGTACATAAAATATTGACATA [XGTACX_site2581] | 11.1 ± 0.88
27 | ATGTAATGTTATGTTATGTTTTTTTTTTTTTTGTGT [CACACA_negctrl_site1264] | 9.745 ± 0.064
28 | TTTTAAACAGGACACACACACATATATATATATATA [CACACA_site4664] | 10.4 ± 0.37
29 | GATATATTTTATATATGTACATACAGTGGTAAATAT [XGTACX_site1324] | 11.2 ± 0.54
30 | TTTATACAAAAAAACAAAATCAAACAAAAAAAAAAA [CACACA_negctrl_site252] | 9.65 ± 0.13
31 | GGAATATGTATATTTTGTACGTATACATTTTTTGGG [XGTACX_site7681] | 11.2 ± 0.58
32 | GTTATTGTAAAAAGATTACACACGTTCTATATACTT [CACACA_site2473] | 9.95 ± 0.18
33 | TTTTCTACATCTTGTTGTACGAAAAATAAAAAAAAT [XGTACX_site4620] | 11.1 ± 0.91
34 | AGTACGTAAATTATAATACACACTATAGGATATTCT [CACACA_site2559] | 10.8 ± 0.49
35 | TATTAGCATGTTATTACACACAATATAAGATATATA [CACACA_site6775] | 9.91 ± 0.099
36 | AATATATATTTATAAACACACACCAAAATTTGTGCT [CACACA_site3091] | 9.855 ± 0.064
37 | ACATTTTGTGTTTTAGCACACAATTTTTCAGAATAT [CACACA_site2961] | 10.1 ± 0.18
38 | ATATTATAATATTTATGTACATATATATAATATATA [XGTACX_site1633] | 11.2 ± 0.76
39 | TACATTTGTATAAATAGTACGCGAAAACAAAAAAAA [XGTACX_site6246] | 11.2 ± 0.61
40 | ATATATGTGCCCATATATATATATATAAATATATGT [GTGCAC_negctrl_site226] | 10.6 ± 0.56
41 | TATATATGTATCATTACACACATGTATACTTATTTG [CACACA_site4138] | 10.3 ± 0.16
42 | TGTATAAATATATATACACACATATTTATATATATA [CACACA_site755] | 9.825 ± 0.035
43 | TATGCTATATATTTAGTGCATATATATAACTTTTAT [GTGCAC_site9902] | 9.79 ± 0.15
44 | TAAAAAAAAACAGAAACACACATTATTCATATATAT [CACACA_site2049] | 9.81 ± 0.18

Row | Sequence | gcPBM binding intensity (ln)
45 | AAAATATTTATGTATGCATGTTGTAATATTTCTTTA [TGCATGCA_site296] | 9.84 ± 0.057
46 | ATTTCCCCTTTTTATTGTACATTTTTATTTGTTACT [XGTACX_site4845] | 10.9 ± 0.53
47 | GCTCTAATTAATATTTGTACACACATATTTAACCTA [XGTACX_site6808] | 11.3 ± 0.79
48 | AATCTAGGTATTTATACACACTAAAATAATATACGA [CACACA_site4515] | 10.05 ± 0.042
49 | AAAAAAAAAAGAAACACACACATATAGATTTATAAC [CACACA_site6927] | 9.78 ± 0.11
50 | ATTTAAATAATATTCACACACAAAATTAAATTTTAA [CACACA_site6246] | 9.99 ± 0.13
51 | AAAAAATTAACCGTAACACACACACCGATATATATA [CACACA_site9312] | 10.1 ± 0.27
52 | TGATCTTTACACATATTATATATATATAAAAAAAAA [XGTACX_negctrl_site360] | 9.99 ± 0.26
53 | TTTTTTTTTTTTTTTTGTACATAATTCCATATTTTT [XGTACX_site1789] | 10.7 ± 0.96
54 | ATATTTAATTTGTATGGTACAGTACGATCTTTCTTT [XGTACX_site5533] | 11.2 ± 0.69
55 | ATAAGAATATATAGAGTGCGTTGAAGAATTATAATA | 9.82 ± 0.12
56 | TTATAACATATAAACATGTTTCATCTTACGTATTTT [GTGCAC_negctrl_site694] | 10 ± 0.11
57 | TGTTATATCAATAATATATAATAATACCCTTCTTTT [CACACA_negctrl_site1682] | 9.82 ± 0.014
58 | ATCGCAAGATTAATATAAGGAGAAACGTTTATATAT [GTGCAC_negctrl_site267] | 9.68 ± 0.15
59 | CCCTCAACGAATTTGAGTACACATTTTAAATGATAT [XGTACX_site7763] | 11.7 ± 1.1
60 | ACATATATATATATATATATATATATATTTATTTAT [CACACA_negctrl_site734] | 10.2 ± 0.39
61 | TACACCATGATACATACACACAGACATATACACATT [CACACA_site6601] | 10.3 ± 0.23
62 | AATTAAATGATTTATACATGCATATAAATATAAATA [TGCATGCA_site579] | 9.69 ± 0.12
63 | TCTGTAAATATGTATACACACATATATGATCAATAT [CACACA_site3234] | 10.11 ± 0.085
64 | AGTAGAAAAGGAACATGTACGAATTAAAAAAATAAT [XGTACX_site2347] | 11 ± 0.33
65 | AATAATATGTTATCTCTTACACATATAAAAAATAAA [XGTACX_negctrl_site370] | 9.825 ± 0.078
66 | TAAAAGAAAGCACATACACACACAAAAAAAAAAAAG [CACACA_site8159] | 10.2 ± 0.28

Row | Sequence | gcPBM binding intensity (ln)
67 | AAAAAACATTTGATCTGTACGCATAGACAATTATAT [XGTACX_site960] | 11.5 ± 1
68 | ACAGGATTGGTTCAAACACACATATTATAGGACTAT [CACACA_site6455] | 10.26 ± 0.049
69 | AAAAAAAAATCATATTGTACGTAAAAAAAAAAAAAA [XGTACX_site476] | 11.4 ± 1
70 | AATATGTTTTGTTAGGTTGGTGTTGGTAGAATGTTT [CACACA_negctrl_site1563] | 9.945 ± 0.035
71 | TTATACTGTACAAAAAGAATAGCAGTATAACAAAAA [CACACA_negctrl_site755] | 10.7 ± 0.51
72 | CAATATATTTGATTTACACACTTACAATGTATTTAA [CACACA_site5632] | 10.2 ± 0.15
73 | ATAATCCTTAGACACACACACACACGAATAAATAAA [CACACA_site6364] | 10.3 ± 0.27
74 | CGAAAAAATAAAAAAAAAATAAAATAAAATAAATAA [TGCATGCA_negctrl_site278] | 9.495 ± 0.007
75 | ATATATATATATATGTGTACATATTTTTTTGAAGTG [XGTACX_site248] | 11.4 ± 0.93
76 | TAATATAAATGAAAGGTGCTTTTGCTTTCTTTTTTT | 9.44 ± 0.3
77 | TTTTCTATATAACAACGTACATTTATTATATTATAA [XGTACX_site6148] | 11 ± 0.6
78 | AATATAATATACATATGTACATATATATATATATAT [XGTACX_site8218] | 11 ± 0.56
79 | TATAACACACAATGATGTACATTACATTATTTTTTA [XGTACX_site2076] | 11 ± 0.52
80 | ATACATATAATAATATGTACATATAATTATATATAT [XGTACX_site913] | 11.2 ± 0.67
81 | AAAAAAAAAAAAAATACACACACACCGATATATATA [CACACA_site8142] | 10.03 ± 0.049
82 | TCTGGATTGGATTACAAGAAAATAAAATATAAAATA [CACACA_negctrl_site122] | 9.92 ± 0.2
83 | TATACAAATATATATGCACACACATATATGTATATG [CACACA_site9007] | 9.97 ± 0.042
84 | TAATTAAAGTTATCTACACACCTTTATAGATATATA [CACACA_site7778] | 9.73 ± 0.17
85 | TATAAAACAAATATATGTACATATCATAGTATAATA [XGTACX_site2965] | 11.1 ± 0.62
86 | TAATATATTTTTAACATGCACTGTATTTTAATATAT | 9.89 ± 0.18
87 | TTTGGTTATTTGACCTGTACACATTTAATTATTTTT [XGTACX_site5170] | 11.4 ± 0.84
88 | CAAAGGAAATGGTGTACACAATTTTTCCTTTTTCGT [CACACA_site4800] | 11.8 ± 1.2

Reference: the supplement of paper PMC11417369
